Results published in article PMC4336329 (PLoS ONE, 2015).
In all, about 310,000 compounds went through this assay and about 14,000 (4.5%) showed an effect of 50% or more. Effects have a minus sign here. The list shows a part of the results.

These molecules were tested against human ether-à-go-go-related gene (hERG) potassium channel (human, UniProt Q12809) (assay: primary screen, population patch clamp on CHO cells stably expressing hERG).
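Further: peak tail current of the secondary pulse compared with the same well before compound.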

human ether-à-go-go-related gene (hERG) potassium channel, sequence (Q12809 whole entry, looked up): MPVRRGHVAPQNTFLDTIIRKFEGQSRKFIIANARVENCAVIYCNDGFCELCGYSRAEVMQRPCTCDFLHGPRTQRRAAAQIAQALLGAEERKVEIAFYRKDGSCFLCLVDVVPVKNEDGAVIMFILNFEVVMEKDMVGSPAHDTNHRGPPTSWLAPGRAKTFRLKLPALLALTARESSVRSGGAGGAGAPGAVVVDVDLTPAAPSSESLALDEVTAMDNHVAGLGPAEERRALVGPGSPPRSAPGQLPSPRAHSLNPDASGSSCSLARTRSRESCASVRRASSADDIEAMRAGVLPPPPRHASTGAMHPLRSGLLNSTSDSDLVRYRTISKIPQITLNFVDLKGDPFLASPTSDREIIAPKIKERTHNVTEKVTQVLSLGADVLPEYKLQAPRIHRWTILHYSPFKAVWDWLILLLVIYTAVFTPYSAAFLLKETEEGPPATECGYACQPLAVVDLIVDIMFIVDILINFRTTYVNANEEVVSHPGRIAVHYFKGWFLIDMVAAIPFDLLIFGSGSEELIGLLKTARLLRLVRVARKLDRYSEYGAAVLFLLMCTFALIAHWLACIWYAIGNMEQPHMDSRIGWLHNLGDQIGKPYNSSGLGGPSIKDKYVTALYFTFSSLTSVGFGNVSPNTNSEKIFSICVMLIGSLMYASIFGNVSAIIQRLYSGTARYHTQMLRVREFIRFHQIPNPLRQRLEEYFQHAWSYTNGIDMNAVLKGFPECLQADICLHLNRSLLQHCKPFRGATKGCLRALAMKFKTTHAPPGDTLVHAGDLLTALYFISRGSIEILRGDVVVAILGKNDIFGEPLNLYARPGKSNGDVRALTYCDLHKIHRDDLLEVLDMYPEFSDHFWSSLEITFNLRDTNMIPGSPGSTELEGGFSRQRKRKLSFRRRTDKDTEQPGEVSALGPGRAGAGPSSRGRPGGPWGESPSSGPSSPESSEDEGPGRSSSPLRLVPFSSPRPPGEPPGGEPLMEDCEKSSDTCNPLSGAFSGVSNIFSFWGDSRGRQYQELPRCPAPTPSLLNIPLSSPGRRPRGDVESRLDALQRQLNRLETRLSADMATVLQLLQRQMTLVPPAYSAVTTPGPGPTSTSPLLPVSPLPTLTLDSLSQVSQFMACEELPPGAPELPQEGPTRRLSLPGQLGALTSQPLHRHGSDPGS

| Structure (SMILES) | hERG current change (%, negative = inhibition) at 10uM [%] |
| --- | --- |
| COc1ccc(N2CC(C(=O)N[C@@H](C)C(=O)NC3CCCC3)CC2=O)cc1 (stereo partly shown) | 15.7 |
| CN(C(=O)CSc1nc(O)cc(=O)n1-c1ccccc1F)c1ccccc1 | 12.1 |
| Fc1ccc(Sc2cc(Cl)c(-c3ccccc3)nn2)cc1 | -34.1 |
| NC(=O)C1CCN(CC(=O)N2c3ccccc3CCc3ccccc32)CC1 | 19.3 |
| CCCCCCCC(=O)Nc1cc(C(=O)NCc2ccc(C)cc2)ccc1N1CCC2(CC1)CC(c1cccc(Br)c1)=NO2 | 2.8 |
| COc1ccc(OC)c2c1sc(=NC(=O)C(C)(C)C)n2C | 7.72 |
| Cl.Clc1ccccc1C(c1nnnn1Cc1ccco1)N1CCN(Cc2ccco2)CC1 (stereo not shown) | -27.6 |
| Cc1ccc(-c2csc(N(CC3CCCO3)C(=O)c3ccco3)n2)cc1 (stereo not shown) | -5.32 |
| CCCCCCOC(=O)c1ccccc1N | 1.33 |
| Br.COC(=O)COc1ccc(C(=O)Cn2c(NCCCO)nc3ccccc32)cc1 | -2.45 |
| Cc1ccc2nsnc2c1N(S(C)(=O)=O)S(C)(=O)=O | -1.27 |
| Cc1cc(Br)ccc1OCC(=O)NNC(=O)C(=O)Nc1ccccc1 | -0.47 |
| CCOC(=O)n1c(SCC(N)=O)nc2ccccc21 | -0.109 |
| COc1ccc(NC(=O)NNC(=O)COc2ccc3cc(Br)ccc3c2)cc1OC | 5.68 |
| CC(=O)Nc1ccc(NC(=O)CCCN2C(=O)c3ccccc3C2=O)cc1 | 15.9 |
| Cc1ccccc1OCC(=O)OCC(=O)NCCNC(=O)COC(=O)COc1ccccc1C | -0.564 |
| Cc1ccc(C(=O)CNc2ccccc2C)cc1 | 7.29 |
| Cc1ccc(-c2cc(C(=O)Nc3cc(C)on3)no2)cc1 | 20.4 |
| CC(C)C[C@H](NC(=O)C1(c2ccccc2)CCN(C(=O)OC(C)(C)C)CC1)C(=O)N1CCC[C@H]1C(=O)O | 9.37 |
| CCCCn1c(C)nc2cc(S(=O)(=O)N3CCOCC3)ccc21 | -11.7 |
| CCCNC(=O)c1ccccc1NC(=O)c1ccc2c(=O)n3c(nc2c1)CCC3 | -14.9 |
| Cc1ccc(S(=O)(=O)N2CCN(C(=O)CC(C)n3cncn3)CC2)cc1C (stereo not shown) | 9.56 |

| Structure (SMILES) | hERG current change (%, negative = inhibition) at 10uM [%] |
| --- | --- |
| COc1cc(C(C(=O)NC2CCCC2)N(Cc2ccccc2)C(=O)c2snc(C(N)=O)c2N)ccc1O (stereo not shown) | -0.527 |
| CC(C)c1ccc(CNc2ncccn2)cc1.O=C(O)C(=O)O | 8.67 |
| CC(=O)N1CCN(S(=O)(=O)c2cccc(C(=O)Nc3ccc4c(c3)OCO4)c2)CC1 | -12.2 |
| COc1ccc(-c2cc3c(=O)n(CC(=O)NCCCN4CCN(Cc5ccccc5)CC4)ncn3n2)cc1 | -54.8 |
| Cc1cc([N+](=O)[O-])nn1Cn1nc([N+](=O)[O-])cc1C | -27.3 |
| Cc1cc(Br)c(NC(=O)CCNC(=O)OCc2ccccc2)cc1C | 2.98 |
| COc1ccc(CCNC(=O)Cn2ccc3c(OC)cccc3c2=O)cc1OC | -8.6 |
| O=C(COC(=O)c1cc(S(=O)(=O)N2CCOCC2)ccc1Cl)NCc1ccco1 | -24.6 |
| O=C(c1ccc(Cl)c(S(=O)(=O)N2CCCCC2)c1)N1CCCC(C(F)(F)F)C1 (stereo not shown) | -31.8 |
| CCOc1ccc(N(CC)C(=O)CCNC(=O)Cn2ccc3ccccc3c2=O)cc1 | 5.61 |
| Cc1ccc(S(=O)(=O)N2CCOCC2)cc1NC(=O)COC(=O)CCOc1ccc(C(C)(C)C)cc1 | -9.54 |
| CCn1nnnc1-c1ccc(OC)c(S(=O)(=O)Nc2ccc(OC)cc2)c1 | -6.08 |
| COc1ccc(C(=O)NCC(C)(C)CNC(=O)c2ccc(OC)cc2)cc1 | -14.5 |
| CCOC(=O)N1CCC(N(CCN(C)C)C(=S)Nc2cccc(OC)c2)CC1 | -2.12 |
| COC(=O)c1cc(S(=O)(=O)NCc2ccc(Br)cc2)c[nH]1 | -16.1 |
| O=C(NCCc1nc2ccccc2[nH]1)/C(=C/c1ccco1)NC(=O)c1ccccc1Br | -64.9 |
| COc1cc(NC(=O)c2ccc(Br)cc2)c(OC)cc1NC(=O)c1ccccc1 | 17.9 |
| CC(Sc1nc(-c2ccccc2)nc2c1COC(C)(C)C2)C(=O)N1CCOCC1 (stereo not shown) | -45.3 |
| Cc1nc2c(C)cccn2c1/C(O)=C1\C(=O)C(=O)N(CCN(C)C)C1c1ccccc1 (stereo not shown) | 15 |
| CC(=O)Nc1sc(C)c(C)c1C(=O)OCC(=O)N(C)C1CCS(=O)(=O)C1 (stereo not shown) | -7.65 |
| Cc1cccc(N(C(=O)c2csnn2)C(C(=O)NC2CCCCC2)c2ccncc2)c1 (stereo not shown) | 16.8 |
